Results as given in the supplement of paper PMC3334620.
The full ranking holds about 33,000 sequences; the median of “E-score (-0.5 to 0.5)” is about -0.041, and the highest 2% start at about 0.37. The list shows a part of the results.

These sequences were tested against T1, Ecm22 (UniProt Q05958) (assay: PBM E-score (8-mer binding enrichment) (E-score (-0.5 to 0.5)); higher = stronger / more preferred TF binding; most listed sequences are background and not binding sites). Details: protein concentration: 200 nM; construct: GST-full length.
T1 sequence: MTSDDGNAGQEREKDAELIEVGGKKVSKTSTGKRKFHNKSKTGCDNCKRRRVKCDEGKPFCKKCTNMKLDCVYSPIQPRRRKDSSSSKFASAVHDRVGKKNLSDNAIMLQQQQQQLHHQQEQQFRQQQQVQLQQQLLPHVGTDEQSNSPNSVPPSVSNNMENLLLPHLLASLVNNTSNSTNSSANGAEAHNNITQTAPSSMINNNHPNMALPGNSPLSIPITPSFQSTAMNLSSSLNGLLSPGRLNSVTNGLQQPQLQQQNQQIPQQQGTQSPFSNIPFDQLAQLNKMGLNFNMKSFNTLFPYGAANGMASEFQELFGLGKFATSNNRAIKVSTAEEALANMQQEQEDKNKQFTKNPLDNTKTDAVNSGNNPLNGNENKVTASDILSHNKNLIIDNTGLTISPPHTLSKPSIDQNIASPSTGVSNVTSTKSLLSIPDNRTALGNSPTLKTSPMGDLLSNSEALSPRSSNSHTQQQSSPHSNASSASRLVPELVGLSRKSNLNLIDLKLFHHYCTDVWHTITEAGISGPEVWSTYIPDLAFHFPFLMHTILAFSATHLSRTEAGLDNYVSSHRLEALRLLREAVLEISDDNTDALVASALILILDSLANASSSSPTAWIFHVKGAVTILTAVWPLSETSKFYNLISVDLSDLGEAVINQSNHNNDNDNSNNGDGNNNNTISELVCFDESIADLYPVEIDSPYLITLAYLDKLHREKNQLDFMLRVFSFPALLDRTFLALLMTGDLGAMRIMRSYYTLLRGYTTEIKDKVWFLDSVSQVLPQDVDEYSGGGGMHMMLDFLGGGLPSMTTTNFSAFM
Outline: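 PURExpress in vitro transcription/translation supplied GST-tagged yeast transcription factors, either full-length or DNA-binding domain. Applied at about 100-200 nM to universal all-10-mer Agilent arrays double-stranded by primer extension, the bound protein was detected with fluorescent anti-GST. E-scores, modified Wilcoxon-Mann-Whitney statistics, were given by the Universal PBM Analysis Suite to ungapped eight-base words pooled with their reverse complements after masliner normalisation.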

| Sequence | PBM E-score |
| --- | --- |
| ATCCCGAA | -0.0384 |
| AATGTTCT | -0.0835 |
| AGAGCATG | -0.13 |
| CGGTACTA | 0.0459 |
| TGCATACA | -0.0114 |
| CTACTAAG | -0.0962 |
| GTAGTCTA | 0.0808 |
| AAATAGGT | -0.0638 |
| AGCGCGTA | 0.248 |
| GCGGACGA | 0.0988 |
| ACCTGAAG | -0.205 |
| AGTAAACT | 0.14 |
| CGGCAGAG | -0.128 |
| AAGTCATG | -0.0266 |
| AAATGAGA | -0.0362 |
| CACTGAGA | 0.00578 |
| ACACATTC | 0.0782 |
| AGAGGGAA | -0.266 |
| CCGCAACC | -0.176 |
| AATCGTTG | 0.165 |
| CGTTGAAA | 0.0935 |
| GCTCTCTA | -0.138 |

| Sequence | PBM E-score |
| --- | --- |
| GCGTAAAA | 0.217 |
| ATGCGATG | 0.148 |
| ACGAGATG | 0.365 |
| TCACCAAA | 0.0237 |
| CTTTTAGC | -0.0889 |
| AGCCGACC | 0.0441 |
| CATTAGCC | -0.176 |
| CCACTGAA | -0.155 |
| CTCTAAAC | 0.0408 |
| GCGAGCAA | 0.198 |
| GGATGATA | -0.0166 |
| AACTCTAA | -0.0908 |
| CTGGCCAG | -0.16 |
| AGCACAAG | -0.222 |
| CGCGCCCG | 0.00528 |
| ACGCTCAA | 0.0449 |
| CGCAAATC | 0.145 |
| CGCCGCAC | 0.0475 |
| CGACTGTC | 0.0412 |
| AAGCCTGT | -0.118 |
| CTGCCACA | -0.191 |
| GTTACCTA | -0.15 |

| Sequence | PBM E-score |
| --- | --- |
| CAGGCTAA | -0.123 |
| CGAAAACA | 0.154 |
| AGATCCGA | 0.233 |
| ATTTCCGC | 0.0426 |
| CGAGAGCA | 0.162 |
| AGACCGGA | 0.0922 |
| ATCCCCTA | -0.329 |
| AATTTCCC | -0.00666 |
| CTTGAAAA | -0.0528 |
| AACCGGTC | 0.0102 |
| CGCCCCCA | -0.157 |
| ATAGCATA | 0.142 |
| GCTACTAA | -0.161 |
| AACGCGGA | 0.117 |
| GGAGCCAA | -0.272 |
| GCCGGGGA | -0.256 |
| ATTAGGGG | -0.108 |
| AGGGGTTG | -0.158 |
| ATGGTACA | -0.122 |
| GAAGAAGC | -0.234 |
| TGCGACAA | 0.141 |
| ACCCGAAC | 0.273 |

| Sequence | PBM E-score |
| --- | --- |
| AGGAAGGG | -0.211 |
| AATCTTGG | -0.37 |
| CGGCCGTA | 0.34 |
| CTCTAGCA | -0.206 |
| AAAAAAAA | -0.156 |
| ACTGTAGC | -0.0736 |
| CCGCCAGG | -0.179 |
| CAGTGAGC | -0.164 |
| TCCTCCCA | -0.135 |
| CACCCACA | -0.174 |
| CCACGGGA | -0.0405 |
| GATTATCC | -0.00311 |
| TAGACCCA | -0.295 |
| AGGTACAC | -0.0213 |
| CTACGGCC | 0.018 |
| CGTTCCCC | 0.428 |
| TGAATGCA | 0.109 |
| CCGGAATC | -0.169 |
| CGGGGCAC | -0.0581 |
| ACGATTTA | 0.245 |
